Laboratory results: PubChem BioAssay AID1645887 (National Center for Advancing Translational Sciences (NCATS), 2021)
“And” between values parts separate entries of the source, which are not always exact repeats. Equal values may be shown once. The campaign covered roughly 16,000 compounds. About 40 (0.2%) were called active. Another 1% or so got no clear call; they are omitted. Calls come from the whole dose curve; as a rule, active = well fitted activation curve with a large enough effect; inconclusive = small, poorly fitted or top-dose-only effect, or another doubt; inactive = no such curve, though single readings can be large or run the other way. This is one part of the list.

biological target: Rap guanine nucleotide exchange factor 4 (Homo sapiens) (UniProt Q8WZA2); assay: Validation qHTS for agonist of cAMP-regulated guanine nucleotide exchange factor 4 (EPAC2); details: EPAC2 Rap1B BODIPY-GDP exchange, fluorescence; activation: active compounds read high;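 note: exchange makes BODIPY-GDP fluorescence drop when released from Rap1B; series mostly up to about 150 µM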
Procedure, shortened: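 Signal normalized against 6.5 mM cAMP as agonist control. Mix of EPAC2 (100 nM), RAP1B-BODIPY-GDP (250 nM) and GDP (50 uM) was read kinetically at 480/540 nm, every 5 min over 30 min, after 5 min room-temperature incubation with compound.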
% is set by controls: 0 for no effect and ±100 for the full control effect.

UniProt Q8WZA2, sequence (Q8WZA2 whole entry, looked up): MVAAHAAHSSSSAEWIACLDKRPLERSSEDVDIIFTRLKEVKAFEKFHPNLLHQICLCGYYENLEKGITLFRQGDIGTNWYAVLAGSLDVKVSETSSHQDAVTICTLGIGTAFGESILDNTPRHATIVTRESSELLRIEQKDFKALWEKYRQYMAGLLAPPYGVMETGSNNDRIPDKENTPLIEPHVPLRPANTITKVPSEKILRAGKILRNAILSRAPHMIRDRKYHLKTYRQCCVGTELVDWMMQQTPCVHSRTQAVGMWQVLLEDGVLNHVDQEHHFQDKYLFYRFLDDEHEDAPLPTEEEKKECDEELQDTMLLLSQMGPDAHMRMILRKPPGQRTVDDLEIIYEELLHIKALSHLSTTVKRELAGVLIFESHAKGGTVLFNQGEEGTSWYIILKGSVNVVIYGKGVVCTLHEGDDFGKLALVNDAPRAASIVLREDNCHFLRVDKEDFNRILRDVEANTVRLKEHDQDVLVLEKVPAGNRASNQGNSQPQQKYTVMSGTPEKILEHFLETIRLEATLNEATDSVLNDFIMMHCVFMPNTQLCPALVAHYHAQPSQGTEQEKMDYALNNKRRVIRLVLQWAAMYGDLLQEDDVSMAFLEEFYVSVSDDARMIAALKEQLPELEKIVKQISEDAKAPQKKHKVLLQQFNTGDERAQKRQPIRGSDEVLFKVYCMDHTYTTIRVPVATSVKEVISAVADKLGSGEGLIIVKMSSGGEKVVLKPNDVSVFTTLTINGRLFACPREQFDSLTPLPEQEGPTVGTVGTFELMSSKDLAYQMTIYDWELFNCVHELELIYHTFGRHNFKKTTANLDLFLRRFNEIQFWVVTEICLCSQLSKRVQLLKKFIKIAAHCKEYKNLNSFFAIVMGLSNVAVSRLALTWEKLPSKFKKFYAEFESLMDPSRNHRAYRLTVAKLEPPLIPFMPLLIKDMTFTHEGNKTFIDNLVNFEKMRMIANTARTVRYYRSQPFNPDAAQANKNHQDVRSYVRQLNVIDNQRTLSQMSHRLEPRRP

activation, inactive:
CCCCCCCCCCCCCCCCCCCCCC(=O)Nc1ccn([C@@H]2O[C@H](CO)[C@@H](O)[C@@H]2O)c(=O)n1 -12.3%, CC(C)NCC(O)c1cc(O)cc(O)c1 (stereo not given) -3.55% and -1.96% and 2.05%, O=C(O)CN(CCN(CC(=O)O)CC(=O)O)CCN(CC(=O)O)CC(=O)O 5.69% and -6.45%, CC(C)(CO)Cc1cc(C(C)(C)C)c(O)c(C(C)(C)C)c1 -19.3% and -20%, O=C1CCC[C@@H]2Cc3nc4cc5c(cc4cc3[C@@H]3CCN1[C@H]23)OCO5 -27.6%, C#CCN(C)CCCOc1ccc(Cl)cc1Cl -6.2% and -15.9%, CCc1cc2c(c(CC)n1)CCC(=O)N2Cc1ccc(-c2ccccc2-c2nn[nH]n2)cc1 4.41%, COc1ccccc1-c1cc(NCc2cccc(C)c2)ncn1 26.1%, CC(C)NC(=O)N1CC2(CCN(C(=O)c3cc(C(F)(F)F)cc(C(F)(F)F)c3)CC2)C1 -11.1%, CCCCCCCCCCCCCCSCC(=O)O -6.75% and -42.7%, COc1ncc2nc(-c3cccs3)c(=O)n(C)c2n1 9.98%, CCCn1cnc2c1c(=O)n(CCCCC(C)=O)c(=O)n2C -11.7% and -26.7%, C#C[C@]1(OC(C)=O)CC[C@H]2[C@@H]3CCC4=C/C(=N/O)CC[C@@H]4[C@H]3CC[C@@]21CC 2.43%, O=C(/C=C/C=C/c1ccc2c(c1)OCO2)N1CCCCC1 6.5%, c1ccc(CNCCNCc2ccccc2)cc1 -2.55%, COc1ccc2[nH]c(C(=O)c3ccccc3)cc2c1 -11.8%, CC(C)CCC[C@@H](C)[C@H]1CC(=O)C2=C3CC[C@H]4C[C@@H](O)CC[C@]4(C)[C@H]3CC[C@@]21C -20.1%, O=c1c2ccccc2nc2n1CCc1c-2[nH]c2ccccc12 -13.3%, CCC(=O)OCC(=O)[C@@]1(OC(=O)CC)[C@@H](C)C[C@H]2[C@@H]3CCC4=CC(=O)C=C[C@]4(C)[C@@]3(Cl)[C@@H](O)C[C@@]21C -0.334%, O=C(O)CCCCCCCCc1cn(CCc2c[nH]c3ccccc23)nn1 -23.3%, CC(=O)OC1CC[C@@]2(C)C3=CC(=O)[C@]4(C)C(CC5OC6(OCC(C)CC6Br)C(C)C54)C3CC[C@H]2C1 (stereo not given in full) -10.4%, OC(c1ccc2c(c1)CN(Cc1ccc3nsnc3c1)CCO2)C1CCCCC1 (stereo not given) -13.2%, COc1ccc2c(c1)CCc1cnc(-n3ncc(C(=O)NCc4cccnc4)c3C3CC3)nc1-2 -16.8%, CC[C@@H]([C@H](C)O)n1ncn(-c2ccc(N3CCN(c4ccc(OCC5CO[C@@](Cn6cncn6)(c6ccc(F)cc6F)C5)cc4)CC3)cc2)c1=O (stereo not given in full) 8.36%, CN1CCC(=O)N([C@H](CN=[N+]=[N-])Cc2ccccc2)CC1 1.84%, Cc1c(C(=O)N(C)C2CCOC2)sc2ncnc(NCC3(c4ccccc4)CCOCC3)c12 (stereo not given) -18.9%, O=C(O)CCCCC1CCSS1 (stereo not given) -1.31% and -8.59% and -6.14%, COCC(=O)O[C@]1(CCN(C)CCCc2nc3ccccc3[nH]2)CCc2cc(F)ccc2[C@@H]1C(C)C -26.6% and -29.2%, O=C(N[C@@H]1CCC(=O)N(CC[C@H](Sc2ccccc2)c2ccccc2)CC1)OCc1ccccc1 -29%, CCN(CC)Cc1cc(Nc2ccnc3cc(Cl)ccc23)ccc1O -15.3% and -6.09%, C=CCN1c2ccc(Br)cc2C(=O)CS1(=O)=O -7.43%, CC(C)=CCC/C(C)=C/CC/C(C)=C/CC/C(C)=C/CO -23.3% and -24.2%, COc1cccc(CN2C(=O)NC(C)(C3CCN(Cc4cnn(C)c4C)CC3)C2=O)c1OC (stereo not given) -8.25%, COc1ccc(CN2CCOc3ccc(C(O)c4cccnc4)cc3C2)cc1O (stereo not given) -3.36%, CCN(CC)S(=O)(=O)c1ccc(C(=O)O)cc1 -1.33%, COc1cccc(-c2nc(NCCN3CCOCC3)c3ccccc3n2)c1 -8.26%, COC(=O)C[C@H]1c2ccccc2S(=O)(=O)N1C(C)C -12.6%, Oc1cc2c(c(Cl)c1O)CCNCC2c1ccccc1 (stereo not given) 3.91% and -26%, CC(=O)OC1CC(OC(C)=O)[C@]2(C)C(CC(=O)[C@]3(C)C2CC[C@@]2(C)C(C(=O)O)OC(=O)C4OC423)C1(C)C (stereo not given in full) -5.04%, CC1(C)OC2CC3C4CC(F)C5=CC(=O)C=C[C@@]5(C)[C@@]4(F)C(O)C[C@@]3(C)[C@]2(C(=O)CO)O1 (stereo not given in full) -8.67%, O=C1CC[C@@H](C(=O)NCC2Cc3cc(Cl)cc(-c4ccc5[nH]ccc5c4)c3O2)N1 (stereo not given in full) -5.96%, COc1cc(-c2c(-c3ccc4c(c3)OCO4)noc2-c2ccsc2)cc(OC)c1OC -31.8%, CCCCCCCCCCOCCC(=O)O 1.63%, COc1ccc(CNc2cc(-c3ccccc3OC)ncn2)c(OC)c1 -8.46%, Cc1cc(C(=O)Nc2ccccc2-c2nc(CNC(=O)C3(C)CCCCC3)c(C)o2)c(C)o1 -7.75%, O=C(O)[C@H]1CN[C@H](C(=O)O)C1 -10.5%, COc1cc(CN2CCOc3ccc(CN4CCC(O)(c5cccnc5)CC4)cc3C2)cc(OC)c1 -4.81%, CN(C)c1ccc(/C=C/c2cc3ccccc3c[n+]2C)cc1 -10.3%, O=C(CCCN1CCC(O)(c2cccc(C(F)(F)F)c2)CC1)c1ccc(F)cc1 -10.5% and -13.7%, CCC1C(=O)NCCN1Cc1ccc2c(c1)CN(Cc1ccc(OC)cc1OC)CCO2 (stereo not given) -1.23%
